Reference: a collection of fitness landscapes (doi:10.1016/j.celrep.2020.107928)
Whole data set: some 81,000 sequences, median “one-hybrid fitness for binding parS DNA” near -0.17, cut for the highest 2% near 0.51. This is one part of the list.

B1: Caulobacter ParB omega fusion; a variant is named by its letters at X, in order, B8GW30 (parent)
chain: MESVVVGEPGMSEGRRGLGRGLSALLGEVDAAPAQAPGEQLGGSREAPIEILQRNPDQPRRTFREEDLEDLSNSIREKGVLQPILVRPSPDTAGEYQIVAGERAWRAAQRAGLKTVPIMVRELDDLAVLEIGIIENVQRADLNVLEEALSYKVLMEKFERTQENIAQTIGKSXSHVANXMRLLXLPDEVQSYLVSGELTAXHARAIAAAADPVALAKQIIEGGLSVRETEALARKAPNLSAGKSKGGRPPRVKDTDTQALESDLSSVLGLDVSIDHRGSTGTLTITYATLEQLDDLCNRLTRGI

Variants of: B1
Assay: one-hybrid fitness for binding parS DNA (scaled: cognate 1, non-cognate 0); higher = stronger binding
Settings: with parS DNA site
Method in brief: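 Fitness here means the log change in variant-to-wild-type read ratio between plasmids sequenced before and after selection. That scale was set so cognate equals 1 and non-cognate equals 0. The selection was a bacterial one-hybrid screen of Caulobacter ParB libraries, four specificity codons randomised, in E. coli USO carrying a HIS3 reporter with the site 19 bp from the promoter, grown 48 hours at 37°C on M9-minus-histidine with 0.1 mM IPTG and 5 mM 3-AT.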

Variant	one-hybrid fitness for binding parS DNA
QIRQ	≤ 0.2
QGSN	≤ 0.2
PLDS	≤ 0.2
RFEN	0.342
YYRE	≤ 0.2
GDKT	≤ 0.2
CCAK	≤ 0.2
QTEE	≤ 0.2
VPAT	≤ 0.2
AWSH	≤ 0.2
AVFD	≤ 0.2
DERT	≤ 0.2
RMSE	≤ 0.2
VPKT	≤ 0.2
ISKI	≤ 0.2
PHSP	≤ 0.2
NEWR	≤ 0.2
RGII	≤ 0.2
YYSP	≤ 0.2
TACF	≤ 0.2
SSDP	≤ 0.2
QWRF	≤ 0.2
RCIA	0.551
LLRS	≤ 0.2

Variant	one-hybrid fitness for binding parS DNA
FTRT	≤ 0.2
PYRC	≤ 0.2
THAD	≤ 0.2
MLTK	≤ 0.2
KSQH	≤ 0.2
NTPG	≤ 0.2
LLIM	≤ 0.2
MPFK	≤ 0.2
FYTG	≤ 0.2
HIFY	≤ 0.2
EIFS	≤ 0.2
VQST	≤ 0.2
QAMN	≤ 0.2
AICT	≤ 0.2
ISPS	≤ 0.2
INTF	≤ 0.2
QALQ	≤ 0.2
PCDG	≤ 0.2
FFYG	≤ 0.2
FRRW	≤ 0.2
QKTW	≤ 0.2
GHNQ	≤ 0.2
RHMS	0.966
LYCL	≤ 0.2

Variant	one-hybrid fitness for binding parS DNA
QCTG	≤ 0.2
SPTC	≤ 0.2
HDVL	≤ 0.2
TIRN	≤ 0.2
IYHD	≤ 0.2
DQRS	≤ 0.2
RWSV	≤ 0.2
GSCI	≤ 0.2
LPHC	≤ 0.2
QNCG	≤ 0.2
QVAS	≤ 0.2
KRTE	≤ 0.2
CIEY	≤ 0.2
MSGT	≤ 0.2
HGML	≤ 0.2
RGPY	≤ 0.2
KTLM	≤ 0.2
PPAD	≤ 0.2
SENC	≤ 0.2
GNPA	≤ 0.2
HMVY	≤ 0.2
KARR	≤ 0.2
PISL	≤ 0.2
ARNK	≤ 0.2

Variant	one-hybrid fitness for binding parS DNA
MPLH	≤ 0.2
YKFV	≤ 0.2
FSYG	≤ 0.2
QQRV	≤ 0.2
YSHN	≤ 0.2
QSRD	≤ 0.2
RTVG	0.979
IHNV	≤ 0.2
VYAW	≤ 0.2
IIKT	≤ 0.2
SAHM	≤ 0.2
SYSN	≤ 0.2
FPGV	≤ 0.2
TIGT	≤ 0.2
FTKG	≤ 0.2
AEAR	≤ 0.2
YTKV	≤ 0.2
RNAI	≤ 0.2
RHHH	≤ 0.2
RMWD	≤ 0.2
NDYF	≤ 0.2
ADLY	≤ 0.2
HMFT	≤ 0.2
SPAD	≤ 0.2

Variant	one-hybrid fitness for binding parS DNA
VLSF	≤ 0.2
KMTG	≤ 0.2
VVHA	≤ 0.2
ATCV	≤ 0.2
DMLL	≤ 0.2
RMQC	1.02
RAQP	≤ 0.2
PERM	≤ 0.2
CRLT	≤ 0.2
FNPG	≤ 0.2
SLVF	≤ 0.2
NVST	≤ 0.2
PSKT	≤ 0.2
MACV	≤ 0.2
NPKS	≤ 0.2
NFTR	≤ 0.2
GIWT	≤ 0.2
CGAT	≤ 0.2
YSCR	≤ 0.2
PESF	≤ 0.2
PQMI	≤ 0.2
KTRM	≤ 0.2
PVRG	≤ 0.2
HNMV	≤ 0.2

Variant	one-hybrid fitness for binding parS DNA
WMIT	≤ 0.2
SKLH	≤ 0.2
INQF	≤ 0.2
RCHT	0.906
MVPA	≤ 0.2
PLKC	≤ 0.2
QIAK	≤ 0.2
FKWG	≤ 0.2
PTPR	≤ 0.2
CETW	≤ 0.2
VPVE	≤ 0.2
PDGP	≤ 0.2
QKVE	≤ 0.2
YNNL	≤ 0.2
FVKP	≤ 0.2
HARY	≤ 0.2
PPKY	≤ 0.2
RMIY	0.467
DTNF	≤ 0.2
TMVR	≤ 0.2
CCNR	≤ 0.2
NSQS	≤ 0.2
LRSK	≤ 0.2
IAIT	≤ 0.2

Variant	one-hybrid fitness for binding parS DNA
GHPK	≤ 0.2
GMKN	≤ 0.2
QATV	≤ 0.2
HYGT	≤ 0.2
GMRT	≤ 0.2
LLAP	≤ 0.2
ATMG	≤ 0.2
SEVS	≤ 0.2
TMNV	≤ 0.2
DPQG	≤ 0.2
NMHC	≤ 0.2
DRSL	≤ 0.2
GTLD	≤ 0.2
ADAG	≤ 0.2
DCLT	≤ 0.2
YDCS	≤ 0.2
KHLK	≤ 0.2
YGAY	≤ 0.2
QSIQ	≤ 0.2
PWRC	≤ 0.2
DDNS	≤ 0.2
HRGG	0.276
IVIT	≤ 0.2
VLHK	≤ 0.2

Variant	one-hybrid fitness for binding parS DNA
HSSC	≤ 0.2
SPPK	≤ 0.2
AQGV	≤ 0.2
GYMS	≤ 0.2
GVFL	≤ 0.2
ETLA	≤ 0.2
IQNI	≤ 0.2
YENT	≤ 0.2
CKSV	≤ 0.2
YEMA	≤ 0.2
LNIY	≤ 0.2
AAKN	≤ 0.2
QHPP	0.294
LAIN	≤ 0.2
WHSI	≤ 0.2
HSLN	≤ 0.2
TANT	≤ 0.2
NEPS	≤ 0.2
CGCN	0.296
WHQV	≤ 0.2
LCLV	≤ 0.2
TMTF	≤ 0.2
ACHT	≤ 0.2
ESNM	≤ 0.2

Variant	one-hybrid fitness for binding parS DNA
RYNM	0.323
AQSC	≤ 0.2
PADP	≤ 0.2
VRGG	≤ 0.2
YGAG	≤ 0.2
EFHR	≤ 0.2
NSFQ	≤ 0.2
DTGC	≤ 0.2
PASF	≤ 0.2
STAH	≤ 0.2
SNST	≤ 0.2
NIQR	≤ 0.2
YSAY	≤ 0.2
QCFV	≤ 0.2
VKDS	≤ 0.2
MSKS	≤ 0.2
PSGN	≤ 0.2
RLHH	0.204
LVIT	≤ 0.2
EIYG	≤ 0.2
RVDC	0.846
QVEM	≤ 0.2
YRDL	≤ 0.2
AHYG	≤ 0.2

Variant	one-hybrid fitness for binding parS DNA
QLTG	≤ 0.2
TCPT	≤ 0.2
TGNK	≤ 0.2
WKYS	≤ 0.2
CTER	≤ 0.2
TMGL	≤ 0.2
AGAF	≤ 0.2
RIHD	≤ 0.2
QLFR	≤ 0.2
RKWY	0.393
ASDR	≤ 0.2
CRHG	≤ 0.2
KQTI	≤ 0.2
LPVC	≤ 0.2
EESA	≤ 0.2
NYQG	≤ 0.2
QQHN	≤ 0.2
HDPI	≤ 0.2
KHVS	≤ 0.2
KRVQ	≤ 0.2
FSYW	≤ 0.2
HDWM	≤ 0.2
CPDW	≤ 0.2
CYNA	≤ 0.2

Variant	one-hybrid fitness for binding parS DNA
EDSR	≤ 0.2
EPIF	≤ 0.2
RLNR	≤ 0.2
IIHD	≤ 0.2
RDQV	≤ 0.2
LTEL	≤ 0.2
QIEP	≤ 0.2
DMAT	≤ 0.2
INME	≤ 0.2
APCV	≤ 0.2
REQN	≤ 0.2
QALH	≤ 0.2
LRLL	≤ 0.2
LLAY	≤ 0.2
IIQR	≤ 0.2
HCFY	≤ 0.2
SAST	≤ 0.2
TLFQ	≤ 0.2
DYKG	≤ 0.2
SWNS	≤ 0.2
HPST	≤ 0.2
NQPV	≤ 0.2
LAMR	≤ 0.2
LFPC	≤ 0.2

Variant	one-hybrid fitness for binding parS DNA
GITC	≤ 0.2
TQAL	≤ 0.2
NINC	≤ 0.2
YIGS	≤ 0.2
HMPT	≤ 0.2
QMDY	≤ 0.2
NDQS	≤ 0.2
GPPQ	≤ 0.2
RDTM	≤ 0.2
KRVK	≤ 0.2
LKMH	≤ 0.2
YHKT	≤ 0.2
AKKP	≤ 0.2
SLCC	≤ 0.2
TRDT	≤ 0.2
KTQS	≤ 0.2
GKVR	≤ 0.2
PDGT	≤ 0.2
LLMR	≤ 0.2
YEHY	≤ 0.2
VSNC	≤ 0.2
MAWW	≤ 0.2
CNYG	≤ 0.2
QQWS	≤ 0.2

Variant	one-hybrid fitness for binding parS DNA
AHLF	≤ 0.2
AKRT	≤ 0.2
CVKF	≤ 0.2
TTTF	≤ 0.2
INAS	≤ 0.2
QKVC	≤ 0.2
LHQW	≤ 0.2
QDFT	≤ 0.2
RGDS	0.551
GPSP	≤ 0.2
IAST	≤ 0.2
TPPN	≤ 0.2
AEAP	≤ 0.2
AIEI	≤ 0.2
HWHT	≤ 0.2
IYKC	≤ 0.2
RYWP	≤ 0.2
MSHA	≤ 0.2
